Experimental data reported in PubChem BioAssay AID485281 (National Center for Advancing Translational Sciences (NCATS), 2010).
Among all 350,000 compounds or so, about 260 (0.074%) were called active. Inconclusive means that the source gave no clear call. Such entries were picked first, then a sample of the others. Calls come from the whole dose curve; as a rule, active = well fitted inhibition curve with a large enough effect; inconclusive = small, poorly fitted or top-dose-only effect; inactive = no such curve, though single readings can be large or run the other way. Where the call is inconclusive, the potency comes from a doubtful curve fit.
% is set by controls: 0 for no effect and ±100 for the full control effect; potency is the fitted concentration of half-maximal effect; tags give direction and shape of the fitted curve.
Note: nearly all actives have a fitted effect of over 20% in size.

The compounds below were run against Ferritin light chain (Equus caballus) (UniProt P02791) (assay: qHTS Assay for Identification of Novel General Anesthetics). Details: apoferritin/1-aminoanthracene competitive binding, fluorescence; activity change, negative = displacement: at 77.5 µM (top of the series).
Chain of UniProt P02791 (P02791 whole entry, looked up): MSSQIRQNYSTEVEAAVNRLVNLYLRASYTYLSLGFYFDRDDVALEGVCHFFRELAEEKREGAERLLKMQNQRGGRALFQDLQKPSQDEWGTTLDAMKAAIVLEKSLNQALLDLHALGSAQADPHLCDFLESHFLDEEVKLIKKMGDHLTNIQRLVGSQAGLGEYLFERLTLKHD
Procedure, shortened: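 Steps: apoferritin (10 uM) was premixed with half-saturated 1-AMA in PBS, compounds were pin-transferred, plates stood 10 min at room temperature, fluorescence was read at 380/535 nm, and curves were fitted with a Hill equation.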
CCOC(=O)c1c(-n2c(C)cc(C=C3C(=O)NC(=S)NC3=O)c2C)sc2c1CCCC2 was tested, and the Potency was inconclusive: 31.6 µM [inhibitor, single point]. With CC(Cc1ccccc1)NCCC(=O)NC(C)Cc1ccccc1 (stereo not given) the Potency was “inactive”. For CC1CCCC(C)N1C(=O)CSc1nnc(NC(=O)c2cccs2)s1 (stereo not given), the Potency was inconclusive: 39.8 µM [inhibitor, single point]. With N#Cc1cc2c(nc1SCC(=O)Nc1ccc(C(F)(F)F)cc1)C1CCN2CC1 the Potency was inconclusive: 44.7 µM [inhibitor, single point]. With CC1CCC(C)(NS(=O)(=O)OCC(Cl)(Cl)Cl)CC1 (stereo not given) the Potency was inconclusive: 35.5 µM [inhibitor, partial curve]. CCOc1ccc(C2C(C#N)=C(N)Oc3c2c(=O)oc2ccccc32)cc1 (stereo not given) was tested, and the Potency was inconclusive: 31.6 µM [inhibitor, partial curve]. CCNC(=O)O/N=C(\C)c1sc(-c2ccc(Cl)cc2)nc1C was tested, and the Potency was inconclusive: 25.1 µM [inhibitor, partial curve]. In the case of CCCCC(=O)N/N=C/c1c(O)n(CCc2ccc(OC)c(OC)c2)c(=O)[nH]c1=O, the Potency is reported as “inactive”. In the case of Cc1cc(/C=C2\C(=O)NC(=O)N(c3cccc(Br)c3)C2=O)c(C)n1C, the Potency is reported as “inactive”. Cc1ccsc1C(=O)C1CCCN(Cc2cnc(N3CCOCC3)s2)C1 (stereo not given) was tested, and the Potency was “inactive”. In the case of CCCC(C)C1(CC)C(=O)NC(=S)NC1=O (stereo not given), the Potency is reported as inconclusive: 20 µM [inhibitor, partial curve]. In the case of Cc1ccc(-n2c(O)c(C=NC3CCCCC3N)c(=O)[nH]c2=O)cc1C (stereo not given), the Potency is reported as inconclusive: 28.2 µM [inhibitor, partial curve]. With Cc1cc(OC(C)C(=O)NCC(O)c2ccccc2)c2c3c(c(=O)oc2c1)CCCC3 (stereo not given) the activity change, negative = displacement was inconclusive: -25.2% [inhibitor]. In the case of C[C@@H]1C[C@H](C)C[C@H](C)[C@@H](O)CC(=O)O[C@H]([C@H]2CCC[C@H]2C(=O)O)C/C=C/C=C(/C#N)[C@H](O)[C@@H](C)C1, the Potency is reported as “inactive”. ClC1=C(Cl)C2(Cl)C3C(Cl)C=CC3C1(Cl)C2(Cl)Cl (stereo not given) was tested, and the Potency was inconclusive: 28.2 µM [inhibitor, partial curve]. With CCOC(=O)c1cc(-c2ccccc2)n(CCCC(=O)Nc2ccc(C)c(C)c2)c1C the Potency was “inactive”. For CCc1cccc(NC(=O)CN2C(=O)CN=C(c3ccccc3F)c3cc(Cl)ccc32)c1, the Potency was inconclusive: 15.8 µM [inhibitor, partial curve]. In the case of O=C(CCC(=O)Nc1ccccc1Cl)N/N=C/c1ccccc1, the Potency is reported as inconclusive: 22.4 µM [inhibitor, partial curve, poor fit]. In the case of Cc1ccc(-n2c(O)c(/C=C3/C(c4ccccc4)=Nc4ccccc43)c(=O)[nH]c2=O)cc1, the Potency is reported as inconclusive: 28.2 µM [inhibitor, single point]. O=c1c2ccccc2nc(-c2ccc([N+](=O)[O-])cc2)n1-c1ccccc1 was tested, and the Potency was “inactive”. In the case of COc1ccc2[nH]c3c(c2c1)CCN=C3C, the Potency is reported as “inactive”. In the case of CC(C)CC(=O)NC(Oc1ccc(Cl)cc1)C(Cl)(Cl)Cl (stereo not given), the Potency is reported as inconclusive: 15.8 µM [inhibitor, partial curve]. For COc1cc(CN=Cc2c(O)n(C(C)(C)C)c(=O)[nH]c2=O)cc(OC)c1, the Potency was inconclusive: 56.2 µM [inhibitor, single point]. With COc1cc(/C=C2/SC(=S)N(Cc3ccccc3)C2=O)ccc1OCC(=O)O the Potency was inconclusive: 31.6 µM [inhibitor, single point]. For CCOC(=O)N1CCN(CC(O)COCCC23CC4CC(CC(C4)C2)C3)CC1 (stereo not given), the Potency was inconclusive: 39.8 µM [inhibitor, partial curve]. Cc1ccc(N)c(C(=O)c2ccccc2)c1 was tested, and the Potency was inconclusive: 44.7 µM [inhibitor, partial curve]. For NCC(CS(=O)(=O)O)c1ccc(Cl)cc1 (stereo not given), the Potency was “inactive”. C=CCn1c(O)c(C(C)=NCc2ccc3c(c2)OCO3)c(=O)[nH]c1=O was tested, and the Potency was “inactive”. O=C1NC(=O)C(=Cc2ccc(N3CCN(C(=O)c4ccccc4)CC3)c([N+](=O)[O-])c2)C(=O)N1 was tested, and the Potency was inconclusive: 39.8 µM [inhibitor, single point]. With Cc1ccc2c(c1)C1CN(C)CCC1N2C(=O)c1cccs1 (stereo not given) the Potency was “inactive”. O=C1CCCC2C3CC(CN12)C1CCCCN1C3 (stereo not given) was tested, and the Potency was “inactive”. For O=C1NC(=O)C(=Cc2ccc(-c3ccccc3[N+](=O)[O-])o2)C(=O)N1, the Potency was “inactive”. For COc1ccc(C(=O)N2CCCC2=O)cc1, the Potency was “inactive”. For COc1cc(CN2CCCC(C(=O)c3sccc3C)C2)cc(Cl)c1O (stereo not given), the Potency was inconclusive: 31.6 µM [inhibitor, partial curve]. CCCCCCn1c(O)c(C=NCCN2CCOCC2)c(=O)[nH]c1=O was tested, and the Potency was “inactive”. In the case of CCOc1ccc(NC(=O)C2C(C(=O)O)C3(Cl)C(Cl)=C(Cl)C2(Cl)C3(Cl)Cl)cc1 (stereo not given), the Potency is reported as inconclusive: 31.6 µM [inhibitor, single point]. In the case of c1ccc2sc(NC3=NCCN3)nc2c1, the Potency is reported as “inactive”. NS(=O)(=O)c1ccc(N=Cc2c(O)n(C3CCCCC3)c(=O)n(C3CCCCC3)c2=O)cc1 was tested, and the Potency was inconclusive: 39.8 µM [inhibitor, partial curve]. For OC1/C(=C/c2ccc(Cl)cc2Cl)N2CCC1CC2 (stereo not given), the Potency was inconclusive: 28.2 µM [inhibitor, partial curve]. For CCOP(=S)(OCC)Oc1cc(C)oc(=O)c1Cl, the Potency was “inactive”. NCCNc1ccc([N+](=O)[O-])c2cccnc12 was tested, and the Potency was inconclusive: 35.5 µM [inhibitor, single point]. In the case of O=C1NC(=O)C(=Cc2ccc(Sc3ccccc3)o2)C(=O)N1, the Potency is reported as inconclusive: 15.8 µM [inhibitor, partial curve]. For C[C@]12CC[C@@H]3[C@@H](CCC4=CC(=O)CC[C@@H]43)[C@@H]1CC[C@@H]2OC(=O)CCc1ccccc1, the Potency was inconclusive: 17.8 µM [inhibitor, partial curve]. In the case of CCCCC(=O)N/N=C/c1c(O)n(CC)c(=S)[nH]c1=O, the Potency is reported as “inactive”. In the case of CCN1C(=O)/C(=C/c2ccc(N(CC)CC)cc2OC)C(=O)NC1=S, the Potency is reported as inconclusive: 39.8 µM [inhibitor, single point]. O=Cc1cn(Cc2ccc(F)cc2Cl)c2ccccc12 was tested, and the Potency was inconclusive: 44.7 µM [inhibitor, partial curve]. In the case of CCN(CC)c1ccc(/C=C2\C(=O)NC(=O)N(Cc3ccco3)C2=O)cc1, the Potency is reported as inconclusive: 50.1 µM [inhibitor, single point]. Cc1ccc(N2C(=O)NC(=O)/C(=C\C=C\c3ccco3)C2=O)cc1C was tested, and the Potency was “inactive”. O=C1c2ccccc2C(=O)N1SC1CCCCC1 was tested, and the Potency was inconclusive: 31.6 µM [inhibitor, partial curve]. In the case of Cc1ccc(N2C(=O)NC(=O)/C(=C/c3ccc(-c4ccc(C(=O)O)c(Cl)c4)o3)C2=O)cc1, the Potency is reported as “inactive”. For Cc1cc(C)cc(N2C(=O)NC(=O)/C(=C\c3cccn3-c3ccccc3)C2=O)c1, the Potency was inconclusive: 14.1 µM [inhibitor, partial curve]. In the case of CCN1C[C@]2(COC)CC[C@H](OC)[C@@]34C5C[C@@H]6[C@@H](OC)C[C@@]7(OCO[C@@]7([C@@H](O)C23)[C@@H]14)C5[C@H]6OC (stereo not given in full), the Potency is reported as “inactive”. In the case of CCOP(=O)(OCC)C(NC(=O)c1cccc([N+](=O)[O-])c1)C(Cl)(Cl)Cl (stereo not given), the Potency is reported as “inactive”. O=C(COc1ccc2ccccc2c1)N1CCN(CC2CC3C=CC2C3)CC1 (stereo not given) was tested, and the Potency was inconclusive: 39.8 µM [inhibitor, single point]. In the case of CCCc1[nH]nc2c1C1(C(=O)N(Cc3ccccc3)c3ccccc31)C(C(=O)OC)=C(N)O2 (stereo not given), the Potency is reported as inconclusive: 28.2 µM [inhibitor, partial curve]. For COc1ccc(CCN2CCC(CNC(=O)c3cnn(-c4ccc(C)cc4)c3C3CCN(C(=O)OC(C)(C)C)CC3)CC2)cc1, the Potency was “inactive”. OC(Cn1c2ccccc2c2ccccc21)C[n+]1cccc2ccccc21 (stereo not given) was tested, and the Potency was inconclusive: 35.5 µM [inhibitor, single point]. Cc1cccc(CN2CCCC(C(=O)c3ccc(C(F)(F)F)cc3)C2)n1 (stereo not given) was tested, and the Potency was inconclusive: 28.2 µM [inhibitor, single point]. For CCN(CC)C(=O)c1ccc(NC(=O)COc2ccccc2F)cc1, the Potency was inconclusive: 31.6 µM [inhibitor, partial curve]. For COc1ccccc1Cn1c(SCC#N)nc2cc(C(=O)N3CCC4(CC3)OCCO4)ccc2c1=O, the Potency was inconclusive: 17.8 µM [inhibitor, partial curve]. CC(NS(=O)(=O)OCC(Cl)(Cl)Cl)c1ccccc1 (stereo not given) was tested, and the Potency was inconclusive: 22.4 µM [inhibitor, partial curve]. With NNC(=O)c1nc[nH]c1C(=O)Nc1ccc(Cl)cc1C(=O)c1ccccc1 the Potency was inconclusive: 35.5 µM [inhibitor, single point]. With c1cncc(C2CCCCN2Cc2ccc3c(c2)OCO3)c1 (stereo not given) the Potency was inconclusive: 17.8 µM [inhibitor, partial curve, poor fit]. With CCCCCCCCCc1ccc(O)cc1 the Potency was inconclusive: 35.5 µM [inhibitor, single point]. For CNCCCc1ccccc1, the Potency was “inactive”. With COP(=O)(OC)/C(C=O)=N/Nc1ccc([N+](=O)[O-])cc1 the Potency was inconclusive: 35.5 µM [inhibitor, single point]. In the case of N#Cc1c(/N=C/c2c(O)n(Cc3ccco3)c(=O)[nH]c2=O)sc2c1CCCC2, the Potency is reported as inconclusive: 20 µM [inhibitor, partial curve]. In the case of O=C(Nc1ccc(OC(=O)N2CCCC2)cc1)N1CCOCC1, the Potency is reported as “inactive”. For Clc1ccc(N2CCN(Cc3ccccc3Cl)CC2)cc1, the Potency was “inactive”. For Brc1ccc2[nH]cc(/C=N/N3CCCCC3)c2c1, the Potency was inconclusive: 50.1 µM [inhibitor, single point].
